# Test results published in the BET-seq Pho4 binding data (Le et al. 2018).
# Some of the results follow. These are noisy estimates, calculated here from bound and input reads.
# Molecular target: T1, Pho4 (S. cerevisiae) (UniProt P07270)
# T1 sequence: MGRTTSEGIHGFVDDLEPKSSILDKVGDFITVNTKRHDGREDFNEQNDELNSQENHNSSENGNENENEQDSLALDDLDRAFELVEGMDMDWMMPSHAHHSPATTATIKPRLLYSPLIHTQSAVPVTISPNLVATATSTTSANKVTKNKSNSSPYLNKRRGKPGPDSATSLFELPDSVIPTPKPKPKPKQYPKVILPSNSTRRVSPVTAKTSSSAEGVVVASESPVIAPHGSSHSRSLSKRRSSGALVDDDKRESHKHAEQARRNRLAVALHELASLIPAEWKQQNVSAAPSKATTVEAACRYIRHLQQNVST
# Assay: relative binding free energy (BET-seq); higher = weaker binding
# Conditions: reference: library average
row,Sequence,relative binding free energy [kJ/mol]
1,ATGATCACGTGTTGCG,0.502
2,GAATTCACGTGGGGTT,0.879
3,TGCGTCACGTGCGGGT,-0.0837
4,TGAGTCACGTGTTGAA,0.209
5,TGTAGCACGTGGGTTT,-0.711
6,CTTGGCACGTGTTTCA,-0.335
7,TAGGTCACGTGCAGGA,0.711
8,GGAGACACGTGGGTGG,-0.251
9,TATTTCACGTGATAAA,0.92
10,TTTCTCACGTGTATTA,0.795
11,ATTGACACGTGGGTGC,-0.628
12,AGCTTCACGTGCTTTG,1.09
13,GGTCTCACGTGTATTA,1.05
14,GTGGTCACGTGTTTCA,1
15,TTGGGCACGTGTGTTG,-0.628
16,AGAGTCACGTGGTGAC,0.293
17,TGTAGCACGTGACCGT,0.418
18,CTTTGCACGTGTGGGA,0.669
19,CTGGTCACGTGTGTTT,0.962
20,TCTGACACGTGGGTTT,-0.0837
21,GAAAGCACGTGGTCGG,-0.753
22,GCCGTCACGTGGTGTA,0.669
23,AATATCACGTGGGGGA,0

row,Sequence,relative binding free energy [kJ/mol]
1,TTGCTCACGTGTTCGA,1.46
2,CGTGTCACGTGTCGGA,0.837
3,TGTGGCACGTGCGGGT,-0.628
4,GTTTGCACGTGACTAG,0.92
5,TCAATCACGTGTATGT,0.879
6,TTTAGCACGTGCGTTG,-0.502
7,AGGATCACGTGGTACG,0.92
8,AAAGGCACGTGTGTCA,-0.0837
9,GAGGGCACGTGGCTTT,-0.209
10,ATAGGCACGTGAATAT,0.418
11,CAAAACACGTGGTTGT,0.46
12,TTATTCACGTGTGCAT,1.46
13,CGTCGCACGTGGGCGG,-0.962
14,GCATGCACGTGTGTTA,0.0837
15,CGGTTCACGTGGCTTA,1.3
16,GGGATCACGTGGAATA,0.837
17,TTCGTCACGTGTGGAA,0.46
18,ATTGTCACGTGGAGGG,0.628
19,TTAAGCACGTGTAAAA,0.46
20,CGAGTCACGTGTGCGT,-0.0837
21,GAGAGCACGTGAAGTG,0.879
22,TCTGTCACGTGTGTCT,0.209
23,TTATTCACGTGGTGGG,0.837

row,Sequence,relative binding free energy [kJ/mol]
1,TTTCACACGTGGAAGT,0.962
2,AGTATCACGTGTTCGT,-0.46
3,AATGGCACGTGTTGAA,-0.46
4,TTGTCCACGTGATTTT,0.962
5,TACAGCACGTGCGGGT,0
6,CGGTGCACGTGGCTCT,0
7,CGTAACACGTGGGGCT,-0.753
8,TTTGACACGTGAGTTC,0.669
9,GTGTGCACGTGTCACG,-0.0837
10,TTTAGCACGTGATAGA,0.209
11,TGGAGCACGTGTAGTA,-0.0418
12,TATAGCACGTGAGTCA,1
13,TTGTACACGTGGGAGG,-0.418
14,GGGTGCACGTGGTATT,0.167
15,CTATGCACGTGCTGTG,-0.418
16,TTATACACGTGTGCTT,0.628
17,GGGCACACGTGTCCGG,1.09
18,CTTCGCACGTGGTGGG,-0.795
19,TTGGCCACGTGGAGCT,0.0418
20,AACAGCACGTGAGTGT,0.502
21,GGGGGCACGTGTCGGA,-0.251
22,GTAATCACGTGTGGAG,0.879
23,TTCTGCACGTGGTAGA,0.167

row,Sequence,relative binding free energy [kJ/mol]
1,TGGGACACGTGCGATG,0.46
2,TGTTACACGTGGATGT,0.293
3,TAAGGCACGTGTGGGC,0.0418
4,TGTAGCACGTGTGAAT,0.209
5,TTCATCACGTGGTTGT,0.251
6,AGGCTCACGTGAGTAG,0.962
7,TTTAACACGTGGACGT,0.46
8,TAGTGCACGTGAAAGG,0.962
9,TCAAGCACGTGTTGAG,-0.167
10,TGGCGCACGTGGGTAT,-1
11,ATACGCACGTGGGTTT,-1.72
12,GTTAGCACGTGTACGG,-0.0418
13,TTTCGCACGTGATGGT,0.628
14,CGTTTCACGTGATGTA,1.13
15,ATGGACACGTGCGATT,0.669
16,GGTTTCACGTGTGGAG,1.46
17,TCGAACACGTGTGTTG,0.377
18,GTGTGCACGTGGCGTT,-0.335
19,TTTTGCACGTGGTCCA,-0.126
20,TTTGCCACGTGATAGG,-0.418
21,ATAGGCACGTGTGTTC,-0.293
22,TAGTGCACGTGGCGCT,-0.293
23,AAATGCACGTGTGTGG,0.167

row,Sequence,relative binding free energy [kJ/mol]
1,TGGAGCACGTGATATT,0.46
2,TATGGCACGTGGTTTT,-0.669
3,GGGCACACGTGGTGTG,-0.167
4,TGGAGCACGTGCGTAA,-0.251
5,TTTTTCACGTGGTCCT,0.962
6,ATTCACACGTGTGGTA,0.418
7,ATTCTCACGTGGTTAG,0.335
8,GTCAACACGTGGGGGC,-0.335
9,GCCGTCACGTGAGTGG,0.795
10,AGGTCCACGTGTGGGG,0.377
11,CGTGTCACGTGTGTCT,0.418
12,GATCTCACGTGTGCGT,1.59
13,GTTTCCACGTGTTGTT,0.962
14,TGGGTCACGTGGGAAT,0.753
15,TGAGGCACGTGGACTG,-0.502
16,GGAATCACGTGTTTGT,0.837
17,TGGAGCACGTGATAAT,0.293
18,TGTCACACGTGGGTGG,0
19,TACGTCACGTGTGTGG,0.126
20,CGGATCACGTGGCGGT,0.544
21,TAGTACACGTGCTAGT,0.293
22,GGACCCACGTGGGTGG,-1.59
23,AGATTCACGTGTGCTT,1.8
